For assay [1], the target named is T1, Arabidopsis anaphase-promoting complex/cyclosome subunit 8 (AtAPC8) (Arabidopsis thaliana) (UniProt Q9STS3).
T1 sequence: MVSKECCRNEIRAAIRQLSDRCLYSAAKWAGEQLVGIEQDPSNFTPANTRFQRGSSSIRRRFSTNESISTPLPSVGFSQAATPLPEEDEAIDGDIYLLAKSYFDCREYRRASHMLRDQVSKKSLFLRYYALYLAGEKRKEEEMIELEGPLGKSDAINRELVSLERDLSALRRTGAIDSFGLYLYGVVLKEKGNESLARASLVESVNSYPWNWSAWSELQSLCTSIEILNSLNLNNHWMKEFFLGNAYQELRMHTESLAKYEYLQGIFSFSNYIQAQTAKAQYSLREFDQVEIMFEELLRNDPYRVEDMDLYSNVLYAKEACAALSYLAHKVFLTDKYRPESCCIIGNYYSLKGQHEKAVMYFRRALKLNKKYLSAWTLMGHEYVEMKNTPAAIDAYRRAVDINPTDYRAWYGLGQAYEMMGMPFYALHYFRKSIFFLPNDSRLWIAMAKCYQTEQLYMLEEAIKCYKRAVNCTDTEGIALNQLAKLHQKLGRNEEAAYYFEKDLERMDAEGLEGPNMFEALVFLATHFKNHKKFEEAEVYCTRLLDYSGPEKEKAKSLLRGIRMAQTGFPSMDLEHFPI
Kind of assay: two-hybrid; APC8 and APC8-D309N in pGBKT7 (Y2H Gold strain), APC10 and CDC20.1 in pGADT7 (Y187 strain); mated on YPDA 48 h; selected on DDO (-Leu -Trp) 48 h and on QDO (-Leu -Trp -His -Ade, with X-alpha-Gal) 6 d.

Assay [2] addresses T2, APC8-D309N (product of the apc8-1 allele) (Arabidopsis thaliana) (UniProt Q9STS3).
T2 sequence: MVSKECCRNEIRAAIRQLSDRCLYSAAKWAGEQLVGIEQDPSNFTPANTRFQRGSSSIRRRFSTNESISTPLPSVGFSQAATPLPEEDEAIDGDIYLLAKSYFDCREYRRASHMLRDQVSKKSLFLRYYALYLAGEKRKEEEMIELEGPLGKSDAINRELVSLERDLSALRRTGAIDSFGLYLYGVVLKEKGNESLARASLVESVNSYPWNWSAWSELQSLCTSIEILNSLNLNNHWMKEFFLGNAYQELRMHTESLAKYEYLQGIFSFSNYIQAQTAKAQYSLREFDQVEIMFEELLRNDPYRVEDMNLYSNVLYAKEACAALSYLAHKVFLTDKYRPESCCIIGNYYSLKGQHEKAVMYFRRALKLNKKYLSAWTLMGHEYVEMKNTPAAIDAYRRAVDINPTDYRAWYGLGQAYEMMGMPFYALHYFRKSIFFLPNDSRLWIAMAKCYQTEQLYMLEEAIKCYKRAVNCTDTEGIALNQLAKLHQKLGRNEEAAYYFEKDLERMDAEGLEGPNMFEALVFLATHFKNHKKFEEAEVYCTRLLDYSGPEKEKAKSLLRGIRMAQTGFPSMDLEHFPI
The description is as above.

In paper PMC6771777 one finds binding data, which are given here for 4 molecules.

These are yes or no findings as the source states them, for the method shown. Some results given as binding are weak or reduced against the parent protein; the word gives no strength.

B1: Arabidopsis APC10 (AtAPC10) (protein, UniProt Q9ZPW2 1-192)
chain: MATESSESEEEGKISGGNYKLIIDDDLREMGKNAAWSVSSCKPGNGVTTLRDDNLETYWQSDGLQPHLINIQFQKKVKLQLVVLYVDFKLDESYTPSKISIRAGDGFHNLKEIKSVELVKPTGWVCLSLSGTDPRETFVNTFMLQIAILSNHLNGRDTHIRQIKVYGPRPNPIPHQPFQFTSMEFLTYSTLR
Turning to B1, the binding entry in assay [1] and in assay [2] was “binds” throughout.

B2: Arabidopsis Cell Division Cycle 20.1 (AtCDC20.1) (protein, UniProt Q9SZA4 1-457)
chain: MDAGMNNTSSHYKTQARCPLQEHFLPRKPSKENLDRFIPNRSAMNFDYAHFALTEGRKGKDQTAAVSSPSKEAYRKQLAETMNLNHTRILAFRNKPQAPVELLPSNHSASLHQQPKSVKPRRYIPQTSERTLDAPDIVDDFYLNLLDWGSANVLAIALDHTVYLWDASTGSTSELVTIDEEKGPVTSINWAPDGRHVAVGLNNSEVQLWDSASNRQLRTLKGGHQSRVGSLAWNNHILTTGGMDGLIINNDVRIRSPIVETYRGHTQEVCGLKWSGSGQQLASGGNDNVVHIWDRSVASSNSTTQWLHRLEEHTSAVKALAWCPFQANLLATGGGGGDRTIKFWNTHTGACLNSVDTGSQVCSLLWSKNERELLSSHGFTQNQLTLWKYPSMVKMAELTGHTSRVLYMAQSPDGCTVASAAGDETLRFWNVFGVPETAKKAAPKAVSEPFSHVNRIR
On to B2, for which the binding entry in assay [1] is “binds”; in assay [2], “no binding”.

B3: Arabidopsis anaphase-promoting complex/cyclosome subunit 8 (AtAPC8) (protein, UniProt Q9STS3 1-579)
chain: MVSKECCRNEIRAAIRQLSDRCLYSAAKWAGEQLVGIEQDPSNFTPANTRFQRGSSSIRRRFSTNESISTPLPSVGFSQAATPLPEEDEAIDGDIYLLAKSYFDCREYRRASHMLRDQVSKKSLFLRYYALYLAGEKRKEEEMIELEGPLGKSDAINRELVSLERDLSALRRTGAIDSFGLYLYGVVLKEKGNESLARASLVESVNSYPWNWSAWSELQSLCTSIEILNSLNLNNHWMKEFFLGNAYQELRMHTESLAKYEYLQGIFSFSNYIQAQTAKAQYSLREFDQVEIMFEELLRNDPYRVEDMDLYSNVLYAKEACAALSYLAHKVFLTDKYRPESCCIIGNYYSLKGQHEKAVMYFRRALKLNKKYLSAWTLMGHEYVEMKNTPAAIDAYRRAVDINPTDYRAWYGLGQAYEMMGMPFYALHYFRKSIFFLPNDSRLWIAMAKCYQTEQLYMLEEAIKCYKRAVNCTDTEGIALNQLAKLHQKLGRNEEAAYYFEKDLERMDAEGLEGPNMFEALVFLATHFKNHKKFEEAEVYCTRLLDYSGPEKEKAKSLLRGIRMAQTGFPSMDLEHFPI
Take B3: the binding result in assay [1] was “binds”.

B4: APC8-D309N (product of the apc8-1 allele) (protein, UniProt Q9STS3 1-579)
chain: MVSKECCRNEIRAAIRQLSDRCLYSAAKWAGEQLVGIEQDPSNFTPANTRFQRGSSSIRRRFSTNESISTPLPSVGFSQAATPLPEEDEAIDGDIYLLAKSYFDCREYRRASHMLRDQVSKKSLFLRYYALYLAGEKRKEEEMIELEGPLGKSDAINRELVSLERDLSALRRTGAIDSFGLYLYGVVLKEKGNESLARASLVESVNSYPWNWSAWSELQSLCTSIEILNSLNLNNHWMKEFFLGNAYQELRMHTESLAKYEYLQGIFSFSNYIQAQTAKAQYSLREFDQVEIMFEELLRNDPYRVEDMNLYSNVLYAKEACAALSYLAHKVFLTDKYRPESCCIIGNYYSLKGQHEKAVMYFRRALKLNKKYLSAWTLMGHEYVEMKNTPAAIDAYRRAVDINPTDYRAWYGLGQAYEMMGMPFYALHYFRKSIFFLPNDSRLWIAMAKCYQTEQLYMLEEAIKCYKRAVNCTDTEGIALNQLAKLHQKLGRNEEAAYYFEKDLERMDAEGLEGPNMFEALVFLATHFKNHKKFEEAEVYCTRLLDYSGPEKEKAKSLLRGIRMAQTGFPSMDLEHFPI
For the molecule B4, in assay [2], the binding result is “binds”.
